Results reported in the supplement of paper PMC12217912.
The list shows a part of the results. Sequences were assembled here from the parent chain. Values near 0.05 are background.

B1: TEV protease; numbered along this chain (parent)
chain: MGESLFKGPRDYNPISSSICHLTNESDGHTTSLYGIGFGPFIITNKHLFRRNNGTLVVQSLHGVFKVKDTTTLQQHLVDGRDMIIIRMPKDFPPFPQKLKFREPQREERICLVTTNFQTKSMSSMVSDTSCTFPSGDGIFWKHWIQTKDGQCGSPLVSTRDGFIVGIHSASNFTNTNNYFTSVPKNFMELLTNQEAQQWVSGWRLNADSVLWGGHKVFMVKPEEPFQPVKEATQL

Variants of: B1
Test: raw area under fraction-flipped curve 0-4 h after induction (AUC4h, not background-subtracted), DNA-recorder readout of cleavage of the substrate (dimensionless); higher = more cleavage of the substrate by the protease variant
Details: temperature: 34 °C; time window: 0-4 h after rhamnose induction
Method: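 In vivo DNA recorder in E. coli TOP10(DE3) ΔrhaA at 34 °C. Each TEVp single-site mutant (parent TEVp 0) is paired with a single-site variant of the 7-mer TEVs (canonical ENLYFQ|S). The substrate sits between flexible linkers in a Bxb1-sfGFP-TEVs-SsrA fusion, so cleavage stabilises Bxb1 and speeds flipping of a recombination array, read by NGS. The value is the raw area under the fraction-flipped curve over 0-4 h after rhamnose induction (AUC4h), with ≥20 reads per time point. It is not background-subtracted; inactive controls average about 0.047.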
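Further: Bxb1 expression induced with 0.2% (w/v) L-rhamnose at OD600 near 0.5, cultures sampled hourly, flipped fraction per protease–substrate barcode pair counted by paired-end Illumina sequencing.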

Row | Variant | area with substrate DNLYFQS | area with substrate FNLYFQS | area with substrate GNLYFQS | area with substrate HNLYFQS | area with substrate INLYFQS | area with substrate KNLYFQS | area with substrate LNLYFQS | area with substrate MNLYFQS | area with substrate NNLYFQS | area with substrate PNLYFQS | area with substrate QNLYFQS | area with substrate RNLYFQS | area with substrate SNLYFQS | area with substrate TNLYFQS | area with substrate VNLYFQS | area with substrate WNLYFQS | area with substrate YNLYFQS
1 | MGESLFKGPRDYNPISYSICHLTNESDGHTTSLYGIGFGPFIITNKHLFRRNNGTLVVQSLHGVFKVKDTTTLQQHLVDGRDMIIIRMPKDFPPFPQKLKFREPQREERICLVTTNFQTKSMSSMVSDTSCTFPSGDGIFWKHWIQTKDGQCGSPLVSTRDGFIVGIHSASNFTNTNNYFTSVPKNFMELLTNQEAQQWVSGWRLNADSVLWGGHKVFMVKPEEPFQPVKEATQL [S17Y] | 0.0781 | 0.0661 | 0.0693 | 0.0611 | 0.0502 | 0.0651 | 0.0902 | 0.0668 | 0.0598 | 0.0708 | 0.0591 | 0.0834 | 0.0678 | 0.06 | 0.0646 | 0.0584 | 0.0632
2 | MGESLFKGPRDYNPISSSICHLTNESDGHTTSLYGIGFGPFIITNKHLFRRNNGTLVVQSLHGVFKVKDTTTLQQPLVDGRDMIIIRMPKDFPPFPQKLKFREPQREERICLVTTNFQTKSMSSMVSDTSCTFPSGDGIFWKHWIQTKDGQCGSPLVSTRDGFIVGIHSASNFTNTNNYFTSVPKNFMELLTNQEAQQWVSGWRLNADSVLWGGHKVFMVKPEEPFQPVKEATQL [H76P] | 0.0552 | – | 0.0527 | 0.0466 | – | 0.0511 | 0.0516 | – | 0.0502 | 0.0594 | – | 0.0538 | – | – | – | 0.0572 | –
3 | MGESLFKGPRDYNPISSSICHLTNESDGHTTSLYGIGFGPFIITNKHLFRRNNGTLVVQSLHGVFKVKDTTTLQQHLVDGRDMIIIRMPKDFPPFPQKLKFREPQREERICLVTTNFQTKSMSSMVSDTSCTFPSGDGIFWKHWIQTKDGQCGSPLVSTRDGFIVGIHSASNFTNTNNYFTSVPKNFMELLTNVEAQQWVSGWRLNADSVLWGGHKVFMVKPEEPFQPVKEATQL [Q194V] | 0.0777 | 0.0697 | – | 0.0596 | 0.0829 | 0.0717 | 0.0574 | – | 0.0697 | 0.0708 | – | – | 0.0693 | – | 0.061 | 0.049 | –
4 | MGESLFKGPRDYNPISSSICHLTNESDGHTTSLYGIGFGPFIITNKHLFRRNNGTLVVQSLHGVFKVKDTTTLQQHLVDGRDMIIIRMPKDFPPFPQKLKFREPQREERICLVTTNFQTKSMSSMVSDTSCTFPSGDGIFWKHWIQTKDGQCGSPLVMTRDGFIVGIHSASNFTNTNNYFTSVPKNFMELLTNQEAQQWVSGWRLNADSVLWGGHKVFMVKPEEPFQPVKEATQL [S158M] | 0.0449 | – | 0.0546 | 0.0744 | 0.0439 | 0.0521 | 0.0619 | 0.0586 | – | 0.0578 | – | 0.0494 | – | 0.0549 | – | – | 0.0316
5 | MGESLFKGPRDYNPISSSICHLTNESDGHTTSLYGIGFGPFIITNKHLFRRNNGTLVVQSLHGVFKVKDTTTLQQHLVDGRDMIIIRMPKDFPPFPQKLKFREPQREERICLVTTNFQTKSMSSMVSDTSCTFPSGDGIFWKHWIQTKDGQCGSPLVSTRDGFIVGIHSASNFTNTNNYFTSVPKNFMPLLTNQEAQQWVSGWRLNADSVLWGGHKVFMVKPEEPFQPVKEATQL [E189P] | 0.0681 | – | 0.048 | 0.0229 | 0.0623 | 0.0927 | – | 0.0931 | 0.071 | 0.0706 | – | – | – | – | 0.0653 | 0.0603 | 0.0554
6 | MGESLFKGPRDYNPISSSICHLTNESDGHTTSLYGIGFGPFIITNKHLFRRNNGTLVVQSLHGVFKVKDTTTLQQHLVDGRDMIIIRMPKDFPPFPQKLKFREPQREERICLVTTNFQTKSMSSMVSDTSCTFPSGEGIFWKHWIQTKDGQCGSPLVSTRDGFIVGIHSASNFTNTNNYFTSVPKNFMELLTNQEAQQWVSGWRLNADSVLWGGHKVFMVKPEEPFQPVKEATQL [D137E] | 0.099 | 0.0653 | 0.0839 | 0.0741 | – | 0.0694 | 0.0663 | 0.101 | – | – | – | – | – | 0.0694 | 0.0782 | 0.0709 | 0.0679
7 | MGESLFKGPRDYNPISSSICHLTNESDGHTTSLYGIGFGPFIITNKHLFRRNNGTLVVQSLHGVFKVKDTTTLQQHLVDGRDMIIIRMPKDFPPFPQKLKFREPQREERICLVTTNFQTKSMSSMVSDTSCTFPSGDGIFWKHWIQTKDGQCGSPLVSTRDGFIVGIHSASNFTNTNNYFTSVPKNFMELLTNQEAQQWVSGWRLNADSVLWGGHKVFMVKPEEPFQPVKEACQL [T233C] | 0.071 | – | – | 0.056 | – | 0.0669 | 0.0754 | 0.0558 | 0.0468 | 0.0646 | – | – | 0.0748 | – | 0.0651 | 0.0425 | –
8 | MGESLFKGPRDYNPISSSICHLTNESDGHTTSLYGIGFGPFIITNKHLERRNNGTLVVQSLHGVFKVKDTTTLQQHLVDGRDMIIIRMPKDFPPFPQKLKFREPQREERICLVTTNFQTKSMSSMVSDTSCTFPSGDGIFWKHWIQTKDGQCGSPLVSTRDGFIVGIHSASNFTNTNNYFTSVPKNFMELLTNQEAQQWVSGWRLNADSVLWGGHKVFMVKPEEPFQPVKEATQL [F49E] | 0.0593 | 0.0416 | 0.052 | 0.0504 | 0.06 | 0.0463 | 0.0336 | 0.0661 | 0.075 | 0.0522 | – | 0.0614 | 0.0488 | 0.048 | 0.0513 | 0.0539 | 0.0379
9 | MGESLFKGPRDYNPISSSICHLTNESDGHTTSLYGIGFGPCIITNKHLFRRNNGTLVVQSLHGVFKVKDTTTLQQHLVDGRDMIIIRMPKDFPPFPQKLKFREPQREERICLVTTNFQTKSMSSMVSDTSCTFPSGDGIFWKHWIQTKDGQCGSPLVSTRDGFIVGIHSASNFTNTNNYFTSVPKNFMELLTNQEAQQWVSGWRLNADSVLWGGHKVFMVKPEEPFQPVKEATQL [F41C] | 0.0675 | – | – | – | 0.0699 | 0.0814 | 0.072 | 0.0741 | 0.0577 | 0.0554 | – | 0.0586 | – | 0.0678 | – | 0.0533 | 0.0619
